Results: ChEMBL document CHEMBL1157539, “Thousands of chemical starting points for antimalarial lead identification” (Nature, 2010)
Whole data set: some 13,000 compounds, median “IFI” near 4, cut for the highest 2% near 17. Some of the results follow.

Test: GSK_TCMDC: Inhibition Frequency Index (IFI). The number of non-kinase HTS assays where a compound showed > 50 % inhibition, expressed as a percentage of the number of such assays in which the compound was tested (-0 is zero)
Type: functional

SMILES	IFI [%]
COc1ccc(OC)c(NC(=O)c2c(-c3c(F)cccc3Cl)noc2C)c1	1.45
CCCC(C(=O)OCCNC)(c1ccccc1)c1ccccc1	3.6
O=C(Nc1ccc(OC2CCN(Cc3ccco3)C2)c(Cl)c1)c1ccc2ncccc2c1 (stereo not given)	3.33
C=CCOC(=O)N1CCC(CNCc2ccc(-c3ccc(-c4nc5ccccc5[nH]4)s3)cc2)C1 (stereo not given)	11
O=C(Nc1cccc(-c2nn3ccccc3c2-c2ccnc(Nc3ccc(C(=O)N4CCOCC4)cc3)n2)c1)c1c(F)cccc1F	8.59
CN(C)CCNC(=O)NC1CN(c2ncnc3cc(-c4ccccc4)sc23)C1	2
c1cc(-c2ccc(CNCCCn3ccnc3)cc2)cc(-c2nc3ccccc3[nH]2)c1	7.62
CCCC[C@@H](C(=O)NCc1ccccc1C(F)(F)F)N1C(=O)CCC1C(=O)Nc1ccc([N+](=O)[O-])cc1 (stereo not given in full)	0.74
COc1ccc(-c2nnc(Sc3ccc(C#N)c([N+](=O)[O-])c3)n2CCC(C)C)cc1	5
O=C(O)C[C@H](NC(=O)[C@@H]1CCCN1C(=O)c1cccc(-c2ccc(Cl)c(Cl)c2)c1)C(=O)O	0.74
C=CCOC(=O)N1CCC(CNCc2ccc(-c3cccc(-c4nc5cc(F)ccc5[nH]4)c3)cc2)C1 (stereo not given)	2.91
Oc1cccc(Nc2nc(NCC3CCCO3)c3ccccc3n2)c1 (stereo not given)	2.19
O=c1cc(NCCCNCc2csc(Br)c2Sc2ccc(Cl)cc2)[nH]c2ccccc12	6.38
CC1(C)NC(=N)N=C(NOCC=Cc2ccccc2)N1	-0
COc1ccc(NC(=O)/C=C/c2ccc(Oc3ccccc3Cl)c([N+](=O)[O-])c2)cc1OCCN(C(C)C)C(C)C	7.63
OC(CNCc1ccccc1OCc1ccccc1)c1cc(Br)cs1 (stereo not given)	6.06
NOCCCCOc1cc(Cl)c(Cl)cc1Cl	-0
NC1CCN(Cc2cccc(-c3ccc(-c4nc5cc(F)ccc5[nH]4)cc3)c2)C1 (stereo not given)	4.29
O=c1cc(NCCCNCc2cccc(OC(F)(F)F)c2)[nH]c2ccccc12	2.16
COc1ccccc1-c1cccc(CNC2CCN(CC3Cn4c(=O)ccc5ccc(F)c3c54)CC2)c1 (stereo not given)	7.27
Clc1ccc(Nc2nc(NCc3ccccc3)nc(N/N=C/c3ccccn3)n2)cc1	10.6
COc1ccc(Cl)cc1N1CCN(CCCNC(=O)c2ccc(-c3nc4ccc(C(F)(F)F)cc4[nH]3)c(C)c2)CC1	1.46
CC(CCCCOCCc1ccccc1)NCC(O)c1cc(Cl)c(N)c(Cl)c1 (stereo not given)	0.74
COc1cc(OC)cc(C(=O)Nc2ccc(-c3nc4ccccc4[nH]3)cc2)c1	1.42
Cc1cc(C2CCN(CCCCNC(=O)c3ccc(NC(=O)c4ccc(Cl)cc4)cc3)CC2)c(C)cc1OCc1ccncc1	3.03
